From the supplement of paper PMC11417369
Some of the results follow.

These sequences were tested on PF3D7_0420300 AP2 domain 1 (GST-tagged) (assay: gcPBM binding intensity (ln(normalized median fluorescence intensity)); higher = stronger DNA binding).
How it was run: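 After 1 h on an Agilent 4 × 180k array of primer-extended double-stranded 36-bp intergenic genomic probes and negative controls, bound GST-tagged P. falciparum DNA-binding domains were detected with Alexa488 anti-GST antibody and scanned at 488 nm. The domains had been expressed in E. coli, and binding took place in 1× PBS with 1% milk, 0.2 mg/ml BSA, 0.5% salmon testes DNA and 0.03% Triton X-100. Binding intensity is the highest Masliner-normalised natural-log median intensity across replicate spots of either probe orientation.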

Sequence | gcPBM binding intensity (ln)
ATTAAGTATATTTCTGCACACAAAAAAAAAAACCAA [CACACA_site9342] | 9.67
ATTATATATATCAGGTGTACGTAAAAAAAATGGACG [XGTACX_site1028] | 9.78
TTTTTTTATTAATGTAGTACAATATAATGTTATATT [XGTACX_site2295] | 9.12
GAGGTCTTTTTTAATGTGCACATATATATATATATA | 9.53
TTTTTTTTTTTTTTTACACACTCCAATAAAAAAGAA [CACACA_site2119] | 8.91
TATAAAAATATATTTACACACTATAAATATCGAAAG [CACACA_site6896] | 9.39
TAATTTATAAATATAATATTTATGTATATGATGTTT [CACACA_negctrl_site464] | 9.19
TTCAAGATTTATTATACACACATATTAAAATATATA [CACACA_site4479] | 9.22
AAACATTTTCATTTGACACACATCATATATTTATAT [CACACA_site1794] | 9.53
AATCTATCAAAGTGTACATGCAATAAAAAAAAAAAA [TGCATGCA_site103] | 9.33
AAAAAATTATTATGAACACACATTTATTATATTCAT [CACACA_site1566] | 9.34
CTTTCATTTCTATCTACACACATATTTTTTCCAAGT [CACACA_site2972] | 9.76
GCGTGCGTGTACTTAACACACATAATATGTATTTAT [CACACA_site1247] | 9.47
TTTTTTTTTCCCCCATGTACATAAATAAGTATATCT [XGTACX_site6965] | 9.32
AAAAGAAAAAAAAGTACACACATGTATATTAAGCGT [CACACA_site5402] | 9.83
TTAATGTACAGACACCCACACACAAACAAATATATA [CACACA_site8888] | 9.8
TAACTTAATTTTAATGCACACAATTTATATATATAT [CACACA_site6022] | 9.37
AAAAATATATATATATATATATATATATTATTTTTT [TGCATGCA_negctrl_site378] | 8.96
TATATATATAAATACAGTACATATATAATATTTTGA [XGTACX_site637] | 9.28
ATATGTACTATACGCACACACACTCACATATATATA [CACACA_site3239] | 10.1
AATTATATGAAATAAACACACATATGCAATATTGCA [CACACA_site6988] | 9.47
TTGGATTTTTCCTATGAACACACGGGGTTACAATTA [CACACA_site449] | 9.14
TCCAATAATTTATAAAAAAAAAAAGGGAAAATGTAT [TGCATGCA_negctrl_site492] | 9.26

Sequence | gcPBM binding intensity (ln)
ATATATTTATTATTAACATGCAATCATTATATATAA [TGCATGCA_site404] | 9.05
TTAATATGAGAATAATGTACAAGAAAATATTACATA [XGTACX_site6609] | 9.21
AAAATAATAAAAAACTGTACGAATTAAAAATTAACA [XGTACX_site8454] | 9.41
TACAACTTAATATGTACACACAAATATATATATATA [CACACA_site5138] | 9.45
GAAATACATTTTAAAAAATAAGTAATTATAAAATAA [TGCATGCA_negctrl_site303] | 9.08
GATACCTATAGACACACACACATACCTATATACATA [CACACA_site7586] | 10.1
ATTCATCCAATAATGTGAATTATCATGATAAACTTA [TGCATGCA_negctrl_site406] | 9
TTTATAAATAAACACACACACATGTGAACATAAAAA [CACACA_site5110] | 9.94
ATCAAAATTGTCATTACACACCTTTATTTTTAGAAT [CACACA_site1813] | 9.42
ATTATTCTATATGAAACATGCATACATTTGTATTTT [TGCATGCA_site823] | 9.28
ATATATGTAAATGAATGTACATTATTTTATATATTA [XGTACX_site8460] | 9.14
TTTTTAATTTTTTTTAAACACACACCGTACATTCAA [CACACA_site7925] | 9.43
TATATACTTTATAAATGTACATATAATGTATTATTT [XGTACX_site7313] | 9.1
TCATTTTAAATATGTGTGCACGTTATAATTTACACA | 9.43
CATTTTCATTTTAAGGTGCATTAATATTTATTTTAA [GTGCAC_site9437] | 9.22
TATATATATACATATTGTACATATTACATGCTATTA [XGTACX_site1184] | 9.28
ATAGATAAATTTACGGGTACTAAAATGGAATATGAA [XGTACX_site8637] | 9.41
TGTGTTCAGTATTGCACACACACAACCAAATAAAAA [CACACA_site379] | 9.64
TATTTTACAATAACAATACACACTATAATATATATA [CACACA_site1391] | 9.41
ATTCACATATTATCTTTACACACTATATATAAGTTT [CACACA_site8901] | 9.75
CATCAAAATGCTACATGTACATATATATAATATATT [XGTACX_site5207] | 9.32
AATATATATAAATAAACACACACAAATATAATAAAA [CACACA_site9176] | 10.2
